Experimental data taken from article PMC12040169 (PLOS Biology, 2025).
Some of the results follow.

tested on: T1, C. trachomatis L2/434/Bu expressing GFP (CTL2-GFP); parameters: species or system HeLa; C. trachomatis total inclusion area by high-content imaging, normalised to DMSO; conditions: total inclusion area; 28.5 h, 10 µM; inhibitor
T1 construct: L2/434/Bu GFP intracellular growth in HeLa cells
Method in brief: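 High-content images of fixed, Hoechst-stained infected cultures supply inclusion area and count (growth) plus nuclei number (viability), complementing bulk GFP/resorufin fluorescence. MIC determination is unchanged from the primary assay.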

Structure (SMILES)	% of control remaining
Cc1ccc(C)c(Oc2coc3cc(OCC(=O)Nc4ccccc4C(C)C)ccc3c2=O)c1 [CBK265906]	127.431
CNC(=O)c1sc2ccccc2c1C1CCN(Cc2nc3ccccc3n2C(C)C)C1 (centres unmarked) [CBK285929]	95.3864
Cc1ccc2oc(-c3cccc(NC(=O)c4ccc(-c5ccc([N+](=O)[O-])cc5)o4)c3C)nc2c1 [CBK263437]	112.222
CC(=O)Nc1ccc(CN(CCO)C2CCc3ccccc32)cc1 (centres unmarked) [CBK304104]	41.1354
Cc1cccc(NC2=NC(=O)/C(=C\c3ccc(Cl)cc3)S2)c1C [CBK263619]	85.1253
Cc1ccccc1OC(C)C(=O)NCCCc1ccccc1 (centres unmarked) [CBK268571]	113.143
COc1cc(/C=N/NC(=O)c2ccccn2)ccc1OC(=O)c1cccc2ccccc12 [CBK262110]	113.088
O=C(c1ccc(F)cc1)C1CCN(C/C=C/c2ccccc2)CC1 [CBK149124]	93.1557
CCc1ccc(CNC(=O)Cn2cc(-c3ccc(CN4CCC(CO)CC4)cc3)nn2)cc1 [CBK167551]	45.4106
O=C(CN(c1ccc(Cl)cc1)S(=O)(=O)c1ccccc1)Nc1ccc(F)cc1 [CBK264013]	105.808
CCOC(=O)c1csc(C2CCCN2C(=O)CC2C=CCCC2)n1 (centres unmarked) [CBK305407]	54.6621
CCN(CC)C(=O)Cn1c(=O)n(Cc2ccco2)c2ncccc21 [CBK284016]	99.4817
COCCNc1nccnc1-c1ccsc1 [CBK038008]	96.3472
COc1ccc(CC(CC(=O)O)C(=O)Nc2ccc(OC)cc2)cc1 (centres unmarked) [CBK286975]	101.344
CCN(CC)C(=O)C1CCCN(C(=O)NCCCN2CCN(C)CC2)C1 (centres unmarked) [CBK156115]	89.7525
O=C1c2ccc(Oc3cccc(Oc4ccc5c(c4)C(=O)N(c4ccccn4)C5=O)c3)cc2C(=O)N1c1ccccn1 [CBK261397]	99.8525
O=C(N1CCCCCC1)N1CCN(S(=O)(=O)N2CCOCC2)CC1 [CBK268681]	108.683
Cc1ccc(NC(=O)COc2ccccc2)c(NC(=O)c2ccccc2I)c1 [CBK266793]	93.2609
O=C(c1cc2ncc(Br)cn2n1)N1CCOCC1 [CBK058513]	69.9165
COCCCOc1nccnc1NC(C)C [CBK115876]	117.762
Fc1ccc2nc(Nc3nnc(-c4ccco4)o3)sc2c1 [CBK287488]	117.065
COc1ccc(NC(=O)c2cc(C(F)(F)F)cc(C(F)(F)F)c2)cn1 [CBK057634]	38.9249
O=C(Cn1ncn2c(cc3ccsc32)c1=O)N1CCCCC1 [CBK284195]	76.2594
Cc1cccc(-c2cncc(C3CCCN(C(=O)Cc4c[nH]c5ccccc45)C3)n2)c1 (centres unmarked) [CBK286149]	124.602
COc1ccc([N+](=O)[O-])cc1CSc1nnc(-c2ccco2)n1C [CBK269671]	81.5503

Structure (SMILES)	% of control remaining
COc1ccc2sc(Br)c(C(=O)O)c2c1 [CBK019180]	59.2227
C=CCn1c(Cc2csc(NC(=O)c3cccc(NC(C)=O)c3)n2)n[nH]c1=S [CBK297891]	97.374
O=C(NCCc1cccs1)Nc1ccc(Cl)cc1C(F)(F)F [CBK044825]	71.1309
CC(=O)Nc1ccc(S(=O)(=O)Nc2ccc(-c3cn4cccnc4n3)cc2)cc1 [CBK268671]	53.334
COc1ccccc1/C=C/C1=NN(c2ccc(F)cc2)C(c2ccccc2OC)C1 (centres unmarked) [CBK262303]	57.8199
O=C(C1CC=CCC1)N1CCC(c2[nH]ncc2-c2ccncc2)CC1 (centres unmarked) [CBK284212]	92.2554
Cc1c(Cl)cccc1NC(=O)CSc1nnc(Cc2cccc3ccccc23)n1-c1ccccc1 [CBK266042]	105.124
CSCCC(=O)N1CCCC2(CCN(C(=O)c3cc(F)c(F)cc3F)C2)C1 (centres unmarked) [CBK131557]	93.2069
N#Cc1ccc(NC(=O)Nc2ccccc2)cc1 [CBK086045]	55.6296
CCC(C)NC(=O)Cn1c(C2CCCNC2)cc2cccnc21 (centres unmarked) [CBK285085]	113.725
Cc1ccc(C(=O)N2CC=C(c3c[nH]c4ncccc34)CC2)cn1 [CBK297889]	91.6414
CCOC(=O)C1(C2CCCCC2)CCN(C(=O)C2COc3ccccc3O2)CC1 (centres unmarked) [CBK136925]	91.4626
Cc1ccc(CNC(=O)N2CCC3(CC2)OCCc2c3[nH]c3ccccc23)cc1 [CBK047121]	123.47
Cc1ccc(-c2cnc3ccccc3n2)cc1NC(=O)c1ccccc1S(=O)(=O)c1ccc([N+](=O)[O-])cc1 [CBK267690]	96.8476
O=C(CSc1nnc(-c2ccco2)o1)Nc1cccc2nsnc12 [CBK268006]	97.0153
O=C(Nc1ccc(NC(=O)c2cc3ccccc3o2)cc1)c1ccc(-c2ccccc2)cc1 [CBK268887]	103.979
COc1ccc(C(=O)N2CCC[C@H]3NC(=O)COc4ccccc4C(=O)N[C@@H]4CCOC[C@@H]4C/C=C/C[C@@H]32)cc1 [CBK292194]	89.0301
CC(C)(C)OCc1[nH]nc(O)c1Cc1c(Cl)cccc1Cl [CBK089569]	80.7393
COCC(=O)N[C@H]1C[C@H]2C(=O)Nc3ccc(-c4cccs4)cc3C(=O)N2C1 [CBK289358]	96.7524
Cc1ccc2c(c1)C(=O)CC1(CCC3C(C(=O)NC4CCCC4)C31)O2 (centres unmarked) [CBK282716]	86.3105
Cc1cc(C)nc(-n2[nH]c(N)cc2=O)n1 [CBK270164]	100.167
c1ccc(N2CCN(C3CCN(Cc4ccccn4)CC3)CC2)cc1 [CBK264684G]	106.595
COCCCn1cnnc1C(C)NC(=O)N(C)Cc1nccs1 (centres unmarked) [CBK306702]	66.8008
Cc1cc(C(=O)N2CCc3c(sc4ncnc(N)c34)C2)sc1C [CBK306420]	118.512
CN(CCC#N)C(=O)c1cc2cc(Cl)ccc2[nH]1 [CBK287956]	56.391
